# From paper PMC4336329 (PLoS ONE, 2015)
# Screen size: about 310,000 compounds; about 2,200 (0.71%) showed an effect of 50% or more. Effects have a minus sign here. This is one part of the list.
# Biological target: human ether-à-go-go-related gene (hERG) potassium channel (human, UniProt Q12809)
# Experiment: primary screen, population patch clamp on CHO cells stably expressing hERG
# Chain of human ether-à-go-go-related gene (hERG) potassium channel (Q12809 whole entry, looked up): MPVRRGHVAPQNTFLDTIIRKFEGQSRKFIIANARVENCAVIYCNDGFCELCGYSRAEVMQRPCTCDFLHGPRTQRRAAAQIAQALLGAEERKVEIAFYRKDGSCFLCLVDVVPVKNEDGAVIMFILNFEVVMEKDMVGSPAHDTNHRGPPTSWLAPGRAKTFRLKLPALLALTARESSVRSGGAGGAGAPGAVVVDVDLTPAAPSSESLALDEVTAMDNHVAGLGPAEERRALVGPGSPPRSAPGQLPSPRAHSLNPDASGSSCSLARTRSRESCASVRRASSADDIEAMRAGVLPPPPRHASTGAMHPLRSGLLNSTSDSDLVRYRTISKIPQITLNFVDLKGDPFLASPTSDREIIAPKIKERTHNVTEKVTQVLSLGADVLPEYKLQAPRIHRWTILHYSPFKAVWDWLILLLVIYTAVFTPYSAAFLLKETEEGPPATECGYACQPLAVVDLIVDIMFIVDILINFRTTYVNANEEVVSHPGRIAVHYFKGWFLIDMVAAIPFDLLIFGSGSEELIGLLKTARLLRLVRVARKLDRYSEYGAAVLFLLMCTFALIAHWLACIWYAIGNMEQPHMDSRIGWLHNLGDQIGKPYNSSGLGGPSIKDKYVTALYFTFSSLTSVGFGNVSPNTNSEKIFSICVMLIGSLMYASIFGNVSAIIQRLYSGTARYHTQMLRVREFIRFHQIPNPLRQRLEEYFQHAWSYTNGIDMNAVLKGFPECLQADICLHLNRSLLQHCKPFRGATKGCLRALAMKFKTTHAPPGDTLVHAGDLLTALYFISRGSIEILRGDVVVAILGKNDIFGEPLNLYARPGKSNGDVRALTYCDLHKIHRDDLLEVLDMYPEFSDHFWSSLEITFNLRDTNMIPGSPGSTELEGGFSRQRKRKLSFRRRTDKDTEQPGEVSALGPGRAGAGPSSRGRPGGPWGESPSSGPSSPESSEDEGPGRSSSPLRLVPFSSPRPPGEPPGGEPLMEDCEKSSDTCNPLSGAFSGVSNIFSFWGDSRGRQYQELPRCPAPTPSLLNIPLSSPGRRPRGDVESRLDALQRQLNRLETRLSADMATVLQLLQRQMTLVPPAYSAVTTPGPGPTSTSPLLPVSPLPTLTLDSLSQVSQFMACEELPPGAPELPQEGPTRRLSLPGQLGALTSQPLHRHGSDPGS
row,Structure (SMILES),"hERG current change (%, negative = inhibition) at 1uM [%]"
1,CCSC1=N/C(=C\c2ccc3c(c2)OCO3)C(=O)S1,9.97
2,CC(C)(C(=O)c1ccccc1)/[N+]([O-])=C/c1ccc(F)cc1,0.438
3,COc1ccc(C2CC(=O)N3CN(Cc4ccco4)CSC3=C2C#N)cc1 (stereo not shown),11.6
4,C/C(=N\NC(=O)C1CC1)c1ccc(C)cc1C,10
5,O=c1cc(CSc2nnc(COc3ccccc3Cl)o2)nc2sccn12,-9.18
6,CC(=O)N(Cc1ccccn1)Cc1ccco1,5.11
7,O=C(Nc1nc2ccc3ccccc3c2s1)c1ccc(N2CCCCC2)c([N+](=O)[O-])c1,7.17
8,COc1ccc(NC(=O)c2csc(Cc3ccccc3)n2)cc1,1.65
9,Cc1ccc(C2CC(C(F)(F)F)n3nc(C(=O)NCCN4CCOCC4)cc3N2)cc1 (stereo not shown),11.3
10,Cc1cc(C)nc(N2CCC(CNC(=O)CCc3ccccc3)CC2)n1,20.4
11,COc1ccc(NC(=S)Nc2cccc3ccccc23)cc1OC,14.9
12,O=C(CSc1nnc2ccccn12)NNC(=O)c1ccc(Cl)cc1,1.82
13,NC(=O)c1cnn(-c2ccc3ccccc3c2)c1N,1.36
14,O=C(Nc1nnc(SCc2ccccc2)s1)c1cccs1,13.2
15,Cc1nn(C2CCS(=O)(=O)C2)c(C)c1CN(C)C(=O)c1ccccc1 (stereo not shown),7.94
16,COc1ccc(O)c(C(=O)c2cnc3c(c2)c(C)nn3C)c1,18.9
17,O=C(CSc1nnc(COc2ccccc2)o1)Nc1ccc(F)cc1,16.4
18,CC(=O)c1cccc(NC(=O)Cc2cccs2)c1,5.07
19,COc1cccc(OC)c1C(=O)N1CCN(C(=O)c2ccc(-c3ccccc3)cc2)CC1,10.7
20,CN(C(=O)CSc1ccncc1)C1CCCN(Cc2ccccc2F)C1 (stereo not shown),12.1
21,COc1cccc(N/C(N)=N/c2nc(CSc3ccccn3)cc(=O)[nH]2)c1,8.56
22,C=CCOC(=O)Nc1c(C(=O)OC)[nH]c2ccccc12,10.5

row,Structure (SMILES),"hERG current change (%, negative = inhibition) at 1uM [%]"
1,N#C/C(=C/c1ccccc1)C(=O)NCc1ccccc1,17.7
2,CNS(=O)(=O)c1cccc(C(=O)Nc2cccnc2)c1,0.636
3,CCOC(=O)N1CCN(S(=O)(=O)c2ccc(OCC(=O)OC)c(C)c2)CC1,-16.4
4,CCC(=O)c1ccc(N2CCN(C(=O)c3ccc(Br)cc3)CC2)c(F)c1,6.41
5,CS(=O)(=O)Nc1ccc2[nH]c(=O)[nH]c2c1,8.28
6,CCCc1c(C(=O)Nc2cc(C)on2)cnn1-c1ccccc1,11.3
7,C=CCn1cc([N+](=O)[O-])nc1C,12.4
8,O=C(N/N=C/c1ccccc1Br)c1cccc(S(=O)(=O)N2CCOCC2)c1,2.68
9,CCc1nc(NCCCn2ccnc2)c2oc3ccccc3c2n1.Cl,-20.2
10,CCN1C(=O)[C@@H]2[C@H](C1=O)[C@@H]1C(=O)Nc3ccccc3C(=O)N1[C@@H]2c1cccc(Cl)c1,-5.85
11,O=C(CSc1ccc2nnc(-c3ccccn3)n2n1)NCC1CCCO1 (stereo not shown),2.83
12,CCOc1ccc(C(=O)NCCN(C)C)cc1,-1.24
13,CCN1CCN(c2nc(N)c([N+](=O)[O-])c(Nc3ccc(C)c(C)c3)n2)CC1,-2.52
14,Cc1ccc(N(C(=O)CNC(=O)c2ccco2)C(C(=O)NC2CCCC2)c2cccnc2)c(C)c1 (stereo not shown),14.7
15,COc1cc(OC)cc(C(=O)Nc2nnc(NC(=S)Nc3ccccc3)s2)c1,7.45
16,COc1ccc(C2CC(=O)C(C=NCCN3CCN(C(=S)Nc4ccccc4)CC3)=C(O)C2)cc1 (stereo not shown),11.3
17,Cc1ccc(N(CC(=O)Nc2cccc(N(C)S(C)(=O)=O)c2)S(C)(=O)=O)cc1,7.4
18,O=C(O)C(=O)O.c1ccc(-c2ccccc2OCCCCN2CCCCCC2)cc1,-48.2
19,COC(=O)C/C=C/[C@@H](C)[C@@H](/C=N/OC[C@H]1O[C@H](c2ccccc2)C=C[C@@H]1Oc1ccc(OC)cc1)OC,8.99
20,CCOC(=O)c1c(C2CC2)csc1NC(=O)COC(=O)c1ccc[n+]([O-])c1,11.1
21,CCOP(=O)(OCC)C(O)c1ccc(N(C)C)cc1 (stereo not shown),8.66
